The source of these data is a collection of fitness landscapes (doi:10.1016/j.celrep.2020.107928).

In all, about 81,000 sequences were measured (“one-hybrid fitness for binding parS DNA”: median about -0.17, highest 2% from about 0.51 on). Some of the results follow.

The chains are these.
B1: Caulobacter ParB omega fusion; a variant is named by its letters at X, in order, B8GW30 (parent)
chain: MESVVVGEPGMSEGRRGLGRGLSALLGEVDAAPAQAPGEQLGGSREAPIEILQRNPDQPRRTFREEDLEDLSNSIREKGVLQPILVRPSPDTAGEYQIVAGERAWRAAQRAGLKTVPIMVRELDDLAVLEIGIIENVQRADLNVLEEALSYKVLMEKFERTQENIAQTIGKSXSHVANXMRLLXLPDEVQSYLVSGELTAXHARAIAAAADPVALAKQIIEGGLSVRETEALARKAPNLSAGKSKGGRPPRVKDTDTQALESDLSSVLGLDVSIDHRGSTGTLTITYATLEQLDDLCNRLTRGI

In this assay the parent is B1. Description: one-hybrid fitness for binding parS DNA (scaled: cognate 1, non-cognate 0); higher = stronger binding. Particulars: with parS DNA site. The method, boiled down: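 Fitness here means the log change in variant-to-wild-type read ratio between plasmids sequenced before and after selection. That scale was set so cognate equals 1 and non-cognate equals 0. The selection was a bacterial one-hybrid screen of Caulobacter ParB libraries, four specificity codons randomised, in E. coli USO carrying a HIS3 reporter with the site 19 bp from the promoter, grown 48 hours at 37°C on M9-minus-histidine with 0.1 mM IPTG and 5 mM 3-AT.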
Consider QKHE, for which the “one-hybrid fitness for binding parS DNA” value was at most 0.2. Under ESAC stands at most 0.2; under KVKM, at most 0.2; under CRFY, at most 0.2.

With DPIE, the “one-hybrid fitness for binding parS DNA” value is at most 0.2. Then WRAC, with at most 0.2; and RRYH, with at most 0.2. Under HAAS stands at most 0.2; under GERI, at most 0.2. Regarding QPVP, the “one-hybrid fitness for binding parS DNA” value was at most 0.2. For the variant CISV, the “one-hybrid fitness for binding parS DNA” value is at most 0.2.

As to AIYP, the “one-hybrid fitness for binding parS DNA” value is at most 0.2. Under DPAG stands at most 0.2; under ILDE, at most 0.2. Under QRTL stands at most 0.2; under KLGC, at most 0.2. With DISN, the “one-hybrid fitness for binding parS DNA” value was at most 0.2. Under SPTT stands at most 0.2; under VGAG, at most 0.2.

Turning to LRPS, the “one-hybrid fitness for binding parS DNA” value is at most 0.2. Turning to PYSI, the “one-hybrid fitness for binding parS DNA” value was at most 0.2. As to NERT, the “one-hybrid fitness for binding parS DNA” value was at most 0.2. Consider MAML, for which the “one-hybrid fitness for binding parS DNA” value is at most 0.2. Under YSMY stands at most 0.2; under NITF, at most 0.2. Then RPSV, with at most 0.2. For TRFA, the “one-hybrid fitness for binding parS DNA” value was at most 0.2.

As to RMTW, the “one-hybrid fitness for binding parS DNA” value amounted to 0.261. Then FWSG, with at most 0.2; and VKSG, with at most 0.2; and WMSC, with at most 0.2. Then LWYG, with at most 0.2; and HWWF, with at most 0.2; and CPAN, with at most 0.2. Then MIFS, with at most 0.2; and RMWE, with at most 0.2; and VDRW, with at most 0.2. As to QRNI, the “one-hybrid fitness for binding parS DNA” value was at most 0.2. Under TKRC stands at most 0.2; under VICG, at most 0.2. AKSC: the “one-hybrid fitness for binding parS DNA” value is at most 0.2. RQLC: the “one-hybrid fitness for binding parS DNA” value is 0.952. Then AEQF, with at most 0.2. Then FKER, with at most 0.2; and SRGA, with at most 0.2.

As to ACQS, the “one-hybrid fitness for binding parS DNA” value is at most 0.2. Under LRSM stands at most 0.2; under TMRP, at most 0.2; under ADWT, at most 0.2. Then TGVR, with at most 0.2.

Consider NTYS, for which the “one-hybrid fitness for binding parS DNA” value is at most 0.2. VLQS: the “one-hybrid fitness for binding parS DNA” value was at most 0.2. Then FAAT, with at most 0.2; and WYHT, with at most 0.2. Then EPGS, with at most 0.2. Under RVMR stands at most 0.2.

Consider KQTA, for which the “one-hybrid fitness for binding parS DNA” value was at most 0.2. Under HNHC stands at most 0.2; under PLRE, at most 0.2. Under YRRT stands at most 0.2; under SVHS, at most 0.2; under RKKT, 0.604. Then DGHN, with at most 0.2; and KRRY, with at most 0.2; and RTPR, with at most 0.2. Consider PSSG, for which the “one-hybrid fitness for binding parS DNA” value is at most 0.2. Under ETGC stands at most 0.2; under CTTN, at most 0.2; under PSRH, at most 0.2. Then HLYY, with at most 0.2. Then QLTY, with at most 0.2. On to PLTD, for which the “one-hybrid fitness for binding parS DNA” value was at most 0.2. Then SPWT, with at most 0.2. Then RRYL, with at most 0.2; and NNNS, with at most 0.2.

In the case of PRQR, the “one-hybrid fitness for binding parS DNA” value was at most 0.2. Under HILL stands at most 0.2; under HTWK, at most 0.2; under KKMR, at most 0.2. Then SVNC, with at most 0.2; and EGSN, with at most 0.2. Then NNYM, with at most 0.2. For FRIW, the “one-hybrid fitness for binding parS DNA” value is at most 0.2. Under NRVC stands at most 0.2; under ALAT, at most 0.2; under QQWY, at most 0.2.

As for SWYQ, the “one-hybrid fitness for binding parS DNA” value is at most 0.2. Regarding GPSY, the “one-hybrid fitness for binding parS DNA” value is at most 0.2. Then SCKG, with at most 0.2; and GHPV, with at most 0.2; and GVWR, with at most 0.2.

Regarding NNDW, the “one-hybrid fitness for binding parS DNA” value is at most 0.2.

For the variant EYQL, the “one-hybrid fitness for binding parS DNA” value is at most 0.2. Under RNCM stands at most 0.2; under RYKN, 0.394. Under QISL stands at most 0.2; under ILDG, at most 0.2.

Turning to QGSL, the “one-hybrid fitness for binding parS DNA” value is at most 0.2. Then QNTE, with at most 0.2. Under ISVL stands at most 0.2. Take FACC: the “one-hybrid fitness for binding parS DNA” value was at most 0.2.

As to SMHL, the “one-hybrid fitness for binding parS DNA” value is at most 0.2. With AYSC, the “one-hybrid fitness for binding parS DNA” value is at most 0.2. With MMAS, the “one-hybrid fitness for binding parS DNA” value is at most 0.2.

Regarding VSRF, the “one-hybrid fitness for binding parS DNA” value is at most 0.2. Then MASG, with at most 0.2; and RCWN, with 0.401; and VLTI, with at most 0.2. Regarding PTKS, the “one-hybrid fitness for binding parS DNA” value is at most 0.2. Then WFQV, with at most 0.2; and QMPI, with at most 0.2; and IIGC, with at most 0.2.

As to QVIV, the “one-hybrid fitness for binding parS DNA” value is at most 0.2. Under PCSF stands at most 0.2. Under QYMN stands at most 0.2; under KQGR, at most 0.2; under WELC, at most 0.2.

In the case of TPTI, the “one-hybrid fitness for binding parS DNA” value is at most 0.2. Turning to RKDT, the “one-hybrid fitness for binding parS DNA” value turned out to be 0.832. Then CASR, with at most 0.2.

On to FGKS, for which the “one-hybrid fitness for binding parS DNA” value was at most 0.2. Regarding PYTA, the “one-hybrid fitness for binding parS DNA” value is at most 0.2. Under SGLT stands at most 0.2. Turning to CQGE, the “one-hybrid fitness for binding parS DNA” value was at most 0.2.

Turning to WNST, the “one-hybrid fitness for binding parS DNA” value was at most 0.2. Then QGPD, with at most 0.2; and MTDG, with at most 0.2. Then QAAD, with at most 0.2; and HHCS, with at most 0.2; and HVCG, with at most 0.2. Then KWAE, with at most 0.2; and QWLR, with at most 0.2; and RKGP, with at most 0.2.

Turning to PYMT, the “one-hybrid fitness for binding parS DNA” value is at most 0.2.

For RNLC, the “one-hybrid fitness for binding parS DNA” value came to 0.736. Under LRYL stands at most 0.2; under YTFW, at most 0.2; under IQGL, at most 0.2. Then TDKQ, with at most 0.2; and QDIT, with at most 0.2. Then NHRE, with at most 0.2; and QGAE, with at most 0.2. For QVGV, the “one-hybrid fitness for binding parS DNA” value is at most 0.2. Under RDQD stands at most 0.2; under ERVW, at most 0.2; under HWFS, at most 0.2. Under RRPS stands 0.757; under SFAG, at most 0.2; under RTNI, at most 0.2. Then NRGG, with at most 0.2; and TMPK, with at most 0.2. As for LFSG, the “one-hybrid fitness for binding parS DNA” value is at most 0.2.

In the case of TRNS, the “one-hybrid fitness for binding parS DNA” value was at most 0.2.

Take KYVG: the “one-hybrid fitness for binding parS DNA” value was at most 0.2. Then LCPG, with at most 0.2. Under GRGK stands at most 0.2; under IILL, at most 0.2; under DTRY, at most 0.2.

As to RPAI, the “one-hybrid fitness for binding parS DNA” value was at most 0.2. For SYKF, the “one-hybrid fitness for binding parS DNA” value was at most 0.2. In the case of QRVP, the “one-hybrid fitness for binding parS DNA” value was at most 0.2.

MMTM: the “one-hybrid fitness for binding parS DNA” value was at most 0.2. Then PDAL, with at most 0.2; and TATI, with at most 0.2. For QLDQ, the “one-hybrid fitness for binding parS DNA” value is at most 0.2.

On to EWFG, for which the “one-hybrid fitness for binding parS DNA” value is at most 0.2. Then QQVI, with at most 0.2; and QKTM, with at most 0.2; and MSAL, with at most 0.2. Under LQPR stands at most 0.2; under HYAC, at most 0.2; under QKQP, at most 0.2. Then EGPT, with at most 0.2. In the case of RFNE, the “one-hybrid fitness for binding parS DNA” value is at most 0.2. Then RSMN, with 0.402; and PVWA, with at most 0.2. Under RLSI stands at most 0.2; under MRWR, at most 0.2; under HNSF, at most 0.2. Under SDQR stands at most 0.2; under YHFG, at most 0.2; under DESG, at most 0.2. RWEF: the “one-hybrid fitness for binding parS DNA” value is at most 0.2. As for HLSK, the “one-hybrid fitness for binding parS DNA” value is at most 0.2. Under VGYT stands at most 0.2; under ERSG, at most 0.2. In the case of YELS, the “one-hybrid fitness for binding parS DNA” value is at most 0.2. As for TNPI, the “one-hybrid fitness for binding parS DNA” value is at most 0.2. Then NPMG, with at most 0.2. Under ITTM stands at most 0.2; under KYLA, at most 0.2; under KFMT, at most 0.2. As for IPHA, the “one-hybrid fitness for binding parS DNA” value was at most 0.2. Under FMPE stands at most 0.2; under TVEE, at most 0.2.
